{"source": "patent US10668093B2", "about": "“Method for prolonging the over survival of a cancer patient” (National Yang-Ming University, priority 2015, dated 2020)", "key": {"CTV-1 [1]": {"system": "CTV-1", "experiment": "50% cell death in three-day growth", "type": "cell-based", "details": "Homo sapiens, 72 h; three-day growth of CTV-1; read-out: final concentration that led to 50% cell death", "protocol": "(§1) Valproic acid (VPA) (Sigma-Aldrich, MO) at 10^−2 M in dimethyl sulfoxide (DMSO), was stocked at −20° C. Fresh dilution of chemicals were prepared before the experiments.\n(§2) CTV-1, Molt-3, THP-1, MCR-5, J5, LPC and Hep3B cell lines were obtained from the American Type Culture Collection (Rockville, Md.). CTV-1 and Molt-3 and were grown in RPMI 1640 medium supplemented with 10% fetal bovine serum (FBS); THP-1, MCR5, J5, LPC and Hep3B were grown in Dulbecco's modified Eagle's medium (DMEM, Gibco, Grand Island, N.Y.) supplemented with 10% FBS. All were grown at 37° C. in a humidified atmosphere containing 5% CO2."}, "CtIP [2]": {"system": "CtIP", "experiment": "Subcellular localization of CtIP by confocal microscopy in CTV-1 cells", "type": "cell-based", "details": "12-hour treatment", "description": "(§3) Cells treated for the indicated time were fixed and doubly immunofluorescence-stained for γH2X and CtIP with mouse anti-γH2A.X (1:500) (Ser139)(05-636, Merk Millipore) and rabbit anti-CtIP (1:500) (Sc-22838, Santa Cruz) antibodies, coupled with donkey fluorescein-conjugated anti-mouse and TRITC-conjugated anti-rabbit antibodies (Jackson ImmunoResearch, West Grove, Pa.), respectively. The cells doubly labeled were then visualized using a Leica TCS-SP2 confocal scanning microscope equipped with an acousto-optical tunable filter and a Plan-Apochromat oil-immersion objective with a 63×/1.32 numeric aperture (Leica Microsystems, Bensheim, Germany). Images were acquired with Leica TCSNT software."}, "CtIP [3]": {"system": "CtIP", "experiment": "Subcellular localization of CtIP by confocal microscopy in normal fibroblasts", "type": "cell-based", "description": "CTV-1 was segregated with T acute lymphoblastic leukemia and THP-1, with acute myeloid leukemia, according to their expression profiles (Andersson, 2005); Molt-3 is a T acute lymphoblastic leukemia and MRC-5, normal fetal lung fibroblasts cell line (ATCC CCL 171). J5, LPC and Hep3B are HCC cell lines.\nas §3"}, "CTV-1 [4]": {"system": "CTV-1", "experiment": "Cell cycle distribution by BrdU assay", "details": "CTV-1, 12-hour treatment"}, "γH2X": {"system": "γH2X", "experiment": "γH2X stain by confocal microscopy", "type": "cell-based", "details": "12-hour treatment", "description": "as §3"}, "caspase 8 and caspase 9": {"system": "caspase 8 and caspase 9", "experiment": "Western blot of caspase cleavage in CTV-1 cells", "type": "cell-based", "details": "CTV-1, 16 hrs after treatment at IC50s", "description": "The apoptosis was evidenced with the increased M2 fractions by TUNEL assay (A), and the increased cleavage of caspase 8 and/or 9 by western blot (B)."}, "PLC": {"system": "PLC", "experiment": "50% cell death in three-day growth", "type": "cell-based", "details": "72 h; three-day growth of PLC; read-out: final concentration that led to 50% cell death", "protocol": "as §1, §2"}, "Hep3B": {"system": "Hep3B", "experiment": "50% cell death in three-day growth", "type": "cell-based", "details": "Homo sapiens, 72 h; three-day growth of Hep3B; read-out: final concentration that led to 50% cell death", "protocol": "as §1, §2"}, "J5": {"system": "J5", "experiment": "50% cell death in three-day growth", "type": "cell-based", "details": "72 h; three-day growth of J5; read-out: final concentration that led to 50% cell death", "protocol": "as §1, §2"}, "[5]": {"system": "advanced hepatocellular carcinoma", "details": "Asia-Pacific patients with advanced HCC, sorafenib arm; cited from earlier work"}}}
{"smiles": "COc1cccc2c1C(=O)c1c(O)c3c(c(O)c1C2=O)C[C@@](O)(C(=O)CO)C[C@@H]3O[C@H]1C[C@H](N)[C@H](O)[C@H](C)O1", "note": "[Doxo, Doxorubicin]", "values": [{"measurement": "IC50", "setting": "CTV-1 [1]", "value": 0.09, "unit": "µM"}]}
{"smiles": "O=C(CCCCCCC(=O)Nc1ccccc1)NO", "note": "[SAHA, Suberoylanilide hydroxamic acid]", "values": [{"measurement": "nuclear entry of CtIP", "setting": "CtIP [2]", "value": "Restrained CtIP from Entering Nuclei"}, {"measurement": "nuclear entry of CtIP", "setting": "CtIP [3]", "value": "not in Normal Fibroblasts"}, {"measurement": "effect on cell cycle populations (in words)", "setting": "CTV-1 [4]", "value": "decreased CTV-1 cells in G0G1 cycle arrest with increase in S phase"}, {"measurement": "DNA break revealed by γH2X stain", "setting": "γH2X", "value": "occurred"}, {"measurement": "cleaved fractions of caspase 8 and caspase 9", "setting": "caspase 8 and caspase 9", "value": "increased"}]}
{"smiles": "CCCC(CCC)C(=O)O", "note": "[VPA, Valproic acid]", "values": [{"measurement": "IC50", "setting": "PLC", "value": 26.7, "unit": "µM"}, {"measurement": "IC50", "setting": "Hep3B", "value": 38.9, "unit": "µM"}, {"measurement": "IC50", "setting": "J5", "value": 28.7, "unit": "µM"}]}
{"smiles": "CNC(=O)c1cc(Oc2ccc(NC(=O)Nc3ccc(Cl)c(C(F)(F)F)c3)cc2)ccn1", "note": "[sorafenib]", "values": [{"measurement": "median overall survival", "setting": "[5]", "value": 6.5, "unit": "months"}]}
